From the supplement of paper PMC12217912
This is one part of the list. The full chains were built here from the parent and the listed change. Values near 0.05 are background.

B1: TEV protease; numbered along this chain (parent)
chain: MGESLFKGPRDYNPISSSICHLTNESDGHTTSLYGIGFGPFIITNKHLFRRNNGTLVVQSLHGVFKVKDTTTLQQHLVDGRDMIIIRMPKDFPPFPQKLKFREPQREERICLVTTNFQTKSMSSMVSDTSCTFPSGDGIFWKHWIQTKDGQCGSPLVSTRDGFIVGIHSASNFTNTNNYFTSVPKNFMELLTNQEAQQWVSGWRLNADSVLWGGHKVFMVKPEEPFQPVKEATQL

Variants of: B1
Assay: raw area under fraction-flipped curve 0-4 h after induction (AUC4h, not background-subtracted), DNA-recorder readout of cleavage of the substrate (dimensionless); higher = more cleavage of the substrate by the protease variant
Settings: temperature: 34 °C; time window: 0-4 h after rhamnose induction
Description: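 In vivo DNA recorder in E. coli TOP10(DE3) ΔrhaA at 34 °C. Each TEVp single-site mutant (parent TEVp 0) is paired with a single-site variant of the 7-mer TEVs (canonical ENLYFQ|S). The substrate sits between flexible linkers in a Bxb1-sfGFP-TEVs-SsrA fusion, so cleavage stabilises Bxb1 and speeds flipping of a recombination array, read by NGS. The value is the raw area under the fraction-flipped curve over 0-4 h after rhamnose induction (AUC4h), with ≥20 reads per time point. It is not background-subtracted; inactive controls average about 0.047.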
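Further: Bxb1 expression induced with 0.2% (w/v) L-rhamnose at OD600 near 0.5, cultures sampled hourly, flipped fraction per protease–substrate barcode pair counted by paired-end Illumina sequencing.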

Variant	area with substrate ENLYDQS	area with substrate ENLYEQS	area with substrate ENLYGQS	area with substrate ENLYIQS	area with substrate ENLYKQS	area with substrate ENLYLQS	area with substrate ENLYMQS	area with substrate ENLYNQS	area with substrate ENLYPQS	area with substrate ENLYQQS	area with substrate ENLYRQS	area with substrate ENLYVQS	area with substrate ENLYYQS	area with substrate ENLYHQS	area with substrate ENLYSQS	area with substrate ENLYWQS	area with substrate ENLYTQS
L5K	0.0302	0.0817	0.071	0.108	0.0589	0.0929	0.108	0.0846	0.0662	0.049	0.0671	0.123	0.0561				
F6G	0.0582	0.0617			0.021	0.0696	0.0918	0.0805						0.055	0.0678	0.0798	
S17I	0.0554	0.0592	0.074	0.119			0.0561	0.0574	0.0429		0.0686	0.163	0.063	0.0359		0.104	
S18H	0.0618	0.0578	0.052		0.0431		0.0758	0.0761	0.0744	0.0696	0.0562	0.12	0.0559	0.0755	0.0596	0.0975	
T23D	0.0578	0.0678	0.0743	0.0793	0.0423		0.0466	0.0669	0.0649	0.0729	0.0589	0.0901	0.0649	0.0698	0.0466	0.0818	
E25F	0.0365	0.0678	0.0707	0.089	0.0603				0.0672	0.051	0.0776			0.0701	0.0579	0.0712	0.0715
D27N	0.0614	0.0774	0.0672	0.137		0.0745	0.0817		0.0643	0.0701	0.0599	0.0555		0.0733	0.0724	0.0473	0.0686
T30E	0.0626		0.0623	0.0724	0.0591		0.0981	0.0535	0.0676	0.0687	0.0622	0.131	0.0711	0.0672	0.054	0.0845	0.0666
Y34R	0.0566	0.058					0.0901	0.0629	0.0608	0.0687			0.0593	0.069		0.0995	
Y34V	0.0581			0.1				0.0611	0.0662		0.0414	0.0852	0.0567	0.0707		0.0658	0.0812
H47Q	0.0675	0.0656	0.0648				0.0705	0.0552			0.063			0.0639		0.0705	0.0562
R50I	0.0472	0.0624					0.102			0.0517	0.0717	0.135			0.0947	0.134	
R51Y	0.0611	0.0823	0.0258	0.108			0.102				0.0458			0.0697	0.121	0.107	
N53F	0.0658	0.0404	0.065		0.068		0.063		0.0596	0.0705	0.0518	0.0796	0.0582		0.0692	0.0588	
G54E	0.0244	0.0479	0.0712	0.0665	0.0514		0.0717	0.059	0.0308	0.0637	0.0582	0.0761		0.0689	0.0735		0.0311
Q59P	0.0317		0.0372		0.058			0.0327		0.0473		0.0385		0.0457	0.0389		
L61P	0.0663	0.0668			0.0934	0.0637	0.0744	0.0206	0.0678	0.0394	0.0516		0.0659	0.0807		0.0756	0.102

Variant	area with substrate ENLYDQS	area with substrate ENLYEQS	area with substrate ENLYGQS	area with substrate ENLYIQS	area with substrate ENLYKQS	area with substrate ENLYLQS	area with substrate ENLYMQS	area with substrate ENLYNQS	area with substrate ENLYPQS	area with substrate ENLYQQS	area with substrate ENLYRQS	area with substrate ENLYVQS	area with substrate ENLYYQS	area with substrate ENLYHQS	area with substrate ENLYSQS	area with substrate ENLYWQS	area with substrate ENLYTQS
H62L	0.0575	0.0659	0.0476		0.0638	0.0926	0.07		0.0803						0.068		
K66N	0.071		0.0702	0.118	0.0491						0.0708					0.0785	
V67F	0.0321	0.0632	0.0664				0.0899	0.0774				0.101	0.0563	0.0696	0.0643	0.064	0.0728
V67Y	0.0629	0.0682	0.0674		0.0527						0.0626		0.0759				0.0742
D69Y	0.052						0.0759				0.0623			0.0726			
L73N	0.063	0.0436	0.0547	0.0669			0.043	0.0618	0.0526		0.0441	0.0321	0.0434	0.0429	0.049	0.0565	0.0673
Q74Y	0.0548		0.0594				0.0515		0.0906	0.0549	0.0524	0.0818		0.0749			0.152
Q75V	0.0497	0.0596		0.118			0.075				0.0665		0.0789	0.0668	0.0676		
L77Q	0.0649	0.0779		0.0716	0.0622	0.0525	0.0585	0.0665		0.0638		0.0645		0.0617	0.052		0.063
D82P	0.0388	0.0799				0.0472		0.0564	0.0488								0.0686
R87C	0.0639	0.0662	0.0407	0.105					0.082		0.0698			0.0565	0.0841	0.0959	
R87Y	0.0837	0.0613	0.0638		0.0545			0.0749	0.0631	0.0644	0.0672		0.0565	0.0533	0.0605	0.0755	0.0949
K90P	0.0726	0.0752		0.119			0.106	0.0647			0.0674	0.115	0.0648	0.0698		0.0772	
K90R	0.0472		0.0791		0.0555		0.104							0.0658	0.0699	0.124	
P93T	0.0743	0.0429	0.0478					0.0649	0.0708					0.0713		0.0799	0.102
P94S	0.0586	0.0491			0.0972		0.0873	0.0712		0.0641	0.0571			0.0654	0.0728	0.0759	0.0893
